Measured values as given in the supplement of paper PMC11417369.
The list shows a part of the results.

System: PfAP2-HC AP2 domain (GST-tagged)
Assay: gcPBM binding intensity (ln(normalized median fluorescence intensity)); higher = stronger DNA binding
How it was run: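 Binding intensity values are the highest Masliner-normalised natural-log median intensity among replicate spots of either probe orientation. The binding step lasted 1 h in 1× PBS with 1% milk, 0.2 mg/ml BSA, 0.5% salmon testes DNA and 0.03% Triton X-100, using GST-tagged P. falciparum DNA-binding domains expressed in E. coli on an Agilent 4 × 180k array of primer-extended double-stranded 36-bp intergenic genomic probes plus negative controls. Alexa488 anti-GST antibody and a 488 nm scan detected bound protein.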

Row | Sequence | gcPBM binding intensity (ln)
1 | TATATACATATATACACACACATATATTATATATAT [CACACA_site275] | 10.4
2 | GTATGTATATTTATCTGTACATATTTATGTATTCTT [XGTACX_site2112] | 9.87
3 | AAAATATAAATTCATGTGCACATATATATTTTGTTA [GTGCAC_site9782] | 9.68
4 | AGGAAAAAATCGAGTAGTACACATTTAGAAATATAA [XGTACX_site8019] | 9.6
5 | ATATCACATATATATATATATATATATATATATATA [XGTACX_negctrl_site463] | 9.55
6 | AAAATTGATATATGCACACATATATATATTAAATAT [CACACA_site763] | 9.98
7 | TTTCATTCTGGTATCACACATTTATTTTCTAGTTTA [CACACA_site4286] | 9.81
8 | AAAAAAAAAAAAAACACACATACACATATATTTTTA [CACACA_site3893] | 9.76
9 | TATAAATATAAAAGGAGTACAAATATATATATATAT [XGTACX_site1386] | 10.1
10 | AGTTATAATAAAAAATGTACGTATTATCATTAAGAA [XGTACX_site4244] | 9.79
11 | TTTTTTTTTATAGCTAAACACACATAAGAATATATG [CACACA_site8282] | 9.61
12 | TCCTAATATATGTATGCACACACAATATATACATAT [CACACA_site9111] | 10.1
13 | GAAAATAAAAAATATGAACACACATATATAACAAAA [CACACA_site7975] | 10.5
14 | AAAAAAATTAAACATACACACGTTACTATTTTTATA [CACACA_site5009] | 9.84
15 | TTATTAATTTATAAATGTACGAATTTTTTATTTAAC [XGTACX_site7605] | 9.29
16 | CATATCAATAATATCACACATATATGTGATTTTATT [CACACA_site5053] | 9.7
17 | CCCCTTAATTAAAGGAGTACTATTTGTGAATAATAT [XGTACX_site4715] | 9.69
18 | TTTATGTAGGAACTAACACACATTGTAAGATTCAGA [CACACA_site1998] | 9.69
19 | GGAACTTTTGGAGGTGCATGCGGAGCAATCTTTTCA [TGCATGCA_site454] | 9.49
20 | TTTAAACCTTAATATTGTACGCAAAAAAAAAAAGAA [XGTACX_site3757] | 9.59
21 | TATTAATAATTAAGTTGTACATTAATTAATATACTG [XGTACX_site6994] | 9.4
22 | TTTAATATTAATAATTGTACATTTTCATAAATACGC [XGTACX_site2837] | 9.51

Row | Sequence | gcPBM binding intensity (ln)
23 | AGGACAAGGGTTACATGTACATATATATATATATAT [XGTACX_site901] | 10.6
24 | CCTAGAAAAAAGAACTGTACATATATATATAAATAT [XGTACX_site1680] | 9.54
25 | TTAATTGAAACTTATTGTACTTTTTTTTTTTTTTTT [XGTACX_site8162] | 9.3
26 | ATAAATAAAAATAGAACACACATATGTTTTTTTTTT [CACACA_site3556] | 9.77
27 | ATATGCAGAGACTGTTTGCACTTTTTTATTTTATGT [GTGCAC_site9695] | 9.9
28 | TGAAAAAATATAATTTGTACATATCAGGCAAAAATG [XGTACX_site1824] | 9.77
29 | CTCAAATTTATTAGTGGTACATAACCAAGGAAATAA [XGTACX_site225] | 9.68
30 | ATTATAATTACTCTAGTGCATTATAAATATGAATAA | 9.45
31 | AAGTTATTTATATATACACACAAATATAAATAATAT [CACACA_site1228] | 9.83
32 | ATAAATTATATTATTGAACACACGTTTGGTAATGTT [CACACA_site2662] | 9.88
33 | AAAAAAATAATAAAAAGTACAAAATGTAGAAAATGT [XGTACX_site5018] | 10.1
34 | AAAAAATAAAACATATATAATATATAATATATATAT [GTGCAC_negctrl_site447] | 9.65
35 | AATGTGAAAACGTGTACACATTTTATTTAATTTATC [CACACA_site5966] | 9.78
36 | ATATATATTATATATTGTACATATTATATTCATTAT [XGTACX_site1766] | 9.72
37 | TTTATTAATTTATAGTGTACATATTAATAATATATT [XGTACX_site7949] | 9.6
38 | GATTATACAAAATATACACACGTGTACAGAAATATT [CACACA_site8305] | 10.1
39 | ATATATTTATTTATATGTACATATTATATATTATAG [XGTACX_site3371] | 9.75
40 | TTATATTAATTTTGTTGTACTATTTGTGCATTAAAT [XGTACX_site4790] | 9.62
41 | CACAGACACGGACACACACACATATATAATATATAT [CACACA_site4495] | 10.8
42 | AAGATATGAACATTTTGTACTTAAAAATTCAATATT [XGTACX_site7103] | 9.55
43 | TAAACAAATAAATATTGTACATTTTTTCCTTTTAAT [XGTACX_site5594] | 9.57
44 | TTTATATAAAATTATTGTACAGTTTTAATATTTTAA [XGTACX_site6807] | 9.32

Row | Sequence | gcPBM binding intensity (ln)
45 | AAGGATAATATATTAGAACACACATATATATGTAAA [CACACA_site7942] | 9.98
46 | TACATACACAAATACACACACAAATACATACACAAA [CACACA_site704] | 10.6
47 | ACATTTTATATATGTAGTACATATTATAGATAATTT [XGTACX_site1976] | 9.61
48 | AGTTGGATACGAAGATGTACAATAATAATAATTAAG [XGTACX_site3561] | 9.67
49 | ATCAAAAACATACCTACACACACAATATGTATATAT [CACACA_site9171] | 10.1
50 | TATTTTATTTTTTTATGTACACAAAAAAAAAAAAAA [XGTACX_site945] | 9.11
51 | TCACTATAATAATTTACACACATTTTAAGAAAATGG [CACACA_site5867] | 9.6
52 | TATTATGTTTATTAAACATGCATATATTTATTTATA [TGCATGCA_site187] | 9.55
53 | ATATTTTATCATGTTTAATATTTATGTGGACATAAA [GTGCAC_negctrl_site275] | 9.33
54 | TACAATCCATATTGTTGTACATTTATAAAATTTACA [XGTACX_site3053] | 9.46
55 | CAATGGTACATACATACACACACACTAATAAAAAAA [CACACA_site8450] | 10.5
56 | GTATATATATAAGAAGAAATATATAAATAAAATATA [CACACA_negctrl_site503] | 9.73
57 | GCTTATTAATATCATACACACATAGATATATTTATA [CACACA_site3104] | 9.78
58 | ATTCGTCACATTTTTTGATATATATATATATATATA [CACACA_negctrl_site1785] | 9.77
59 | AATATATAAATGTTGTGTACTAAGCAATATATTTTA [XGTACX_site2483] | 9.66
60 | TAAAAAATATAAACTGCACACACACTAATAAAGAAA [CACACA_site8119] | 11.1
61 | ATATAGTTGTCATATTGTACACTTTAGGGTTGGTTA [XGTACX_site7339] | 9.72
62 | CTATTATCGGTTCCTACACACAAATATATATGTCTA [CACACA_site3579] | 10.2
63 | ACGAATATAGGATGTTTGCACTGTACCAATAAATGA [GTGCAC_site9808] | 9.66
64 | ACCTATTTCAAACACACACACACACCCACAAACATA [CACACA_site977] | 10.9
65 | TTCTTAATACAAATATGTACATATATATATATATAT [XGTACX_site757] | 9.85
66 | GATGTGTAAATAAGGATATATAACAATCAACAAAAC [XGTACX_negctrl_site494] | 9.88

Row | Sequence | gcPBM binding intensity (ln)
67 | TCATTTTAAGGAAAAAGTACAAAATAATATGTTCCT [XGTACX_site1903] | 9.31
68 | AATAGAAAAAAAAAATGTACAAAATGTTTATAAAAA [XGTACX_site4635] | 9.79
69 | AAATGAATATAAAATATACACACTTATATATTGAAT [CACACA_site202] | 9.82
70 | AAATTACCCTTGTGTACACATATATTATCTGTATTA [CACACA_site4514] | 9.94
71 | AAAAAATTTTAATATGCATGTAATTTTGCTTTTTCA [TGCATGCA_site1044] | 9.47
72 | AGCACGCACAGACACACACACATATTTATATTTATA [CACACA_site6291] | 10.3
73 | TAATATAGGGGTGTTCAAATAAATTTTGTTATTTTT [CACACA_negctrl_site1203] | 9.8
74 | GAAGGAAATAAATCAACACACATATATTATAGATAT [CACACA_site7095] | 10
75 | ATAATGTAAAATAAATGTACGCAATATATAAAAAAT [XGTACX_site5747] | 10.1
76 | TATTGAAAGTGAATTATAACATTAAAAATATATATA [TGCATGCA_negctrl_site566] | 9.59
77 | TGAATATGTAAATGCACACCAAAAAAAAAAAAAAAA [CACACA_site3566] | 9.44
78 | CAATATAAAAGACACACACACAAACATATATTTATA [CACACA_site7697] | 11.3
79 | AAAATAAAAAAAATGAATTAGTTAAATGAAAAATAA [CACACA_negctrl_site1294] | 9.62
80 | TTTCTTTTTTTGGGCACACAAAATTTTCTCATTTTA [CACACA_site68] | 9.92
81 | ATTATATAATAATGCATGCACCTTATTTTCATTTCA [GTGCAC_site9922] | 9.71
82 | TATCTTCATATATGGTGTACAGATTTTTTTTTTTTT [XGTACX_site5545] | 9.66
83 | ATAAAATTATTATATACATGCAAAATTAATATATTG [TGCATGCA_site507] | 9.59
84 | AAATAGAAAAAATATACACACACTTATTAAATAAAA [CACACA_site3313] | 10.1
85 | AAATAATAAAGTATAACACACATATTTATTTATATA [CACACA_site7822] | 9.77
86 | AAAATTAAAAAAATATGTACTTATGGGTAACATCAT [XGTACX_site5548] | 9.58
87 | CTGATATATTATTTATCTGAATATATTAATATGTAT [GTGCAC_negctrl_site82] | 9.53
88 | GTTATACATTTGAAAAGTACTCATGATTTTTTTTTT [XGTACX_site8177] | 9.61
